Experimental data as given in PubChem BioAssay (NCATS).
Inconclusive results, whose numbers are uncertain, are shown with a selection of clear calls. For some assays here: Potencies beside an inconclusive call are fits to weak or partial responses and may not hold up. For some assays here: “Side channel” marks fits to a control or component signal instead of the main read-out. Calls of active or inactive are those of the source. Unless noted, the call rests on the fitted dose curve; in most records, active means well fitted curve in the direction sought with a large enough effect; inconclusive means small, poorly fitted or top-dose-only effect, or another doubt; inactive means no such curve, though single readings can be large; an effect the other way counts as inactive or inconclusive.

How the values were obtained:
[1] = Cell Viability - Jurkat (AID 426;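 active means dose-dependent loss of cell ATP signal giving a full or clear fitted curve, ranked by lower potency value; inconclusive means weak partial curve or response only at the top dose; inactive means no loss of viability signal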;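 further: potency means the concentration at half of the fitted maximal effect; cells exposed to compound for 40 hours at 37 °C before ATP read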); conditions: qHTS
In short: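 qHTS, 1536-well; Jurkat E6-1, 5000 cells/well, complete medium; cpd 40 hr, 37 °C; CellTiter-Glo 20 min RT; luminescence. AC50 by Hill fit.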

[2] = target: Mitogen-activated protein kinase 10 (Mus musculus) (UniProt Q61831); assay: JNK3 AlphaScreen Assay (AID 530; active means well fitted curve in either direction with a large enough effect, not every such curve was filed as active; inconclusive means small, poorly fitted or top-dose-only effect, or another doubt;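 further: kinase came from lysate of stimulated human HepG2 cells; signal reports phosphorylation of biotinylated GST-cJun 1-79 at Ser73 with 10 µM ATP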; further: potency means the concentration at half of the fitted maximal effect; on activity change, negative = inhibition: on the % scale 0 is the no-effect control and ±100 the full control effect); conditions: JNK3 lysate, c-Jun phosphorylation; activity change, negative = inhibition: at 57.1 µM (top of the series)
In short: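 Inhibitors reduce antibody binding to phosphorylated biotin-cJun, lowering AlphaScreen luminescence. Lysates from HepG2 cells pre-activated by IL-1beta plus TNF-alpha supplied JNK3; compounds were titrated.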

[3] = Cellular Toxicity (caspase-3) SHSY5Y (AID 657)
In short: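 qHTS, SH-SY5Y, 1500 cells/well, 5 h pre-incubation 37 °C; compound 16 h 37 °C; Caspase-Glo 3/7 1 h RT; luminescence. Norm.: DMSO = 0, 10 uM staurosporine = 100%. Hill fit → AC50.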

[4] = Cell Viability - LYMP2-003 (AID 965);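 further: cells exposed to compounds for 24 h before reading; 0% = DMSO only and full effect = 92 µM tetraoctylammonium bromide; nearly all actives have a fitted effect of over 50% in size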
In short: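 Seed 2500 lymphoblastoid cells/well; incubate 5 hr, 37 C; add compounds; incubate 24 hr, 37 C; add CellTiter-Glo, 30 min RT; read luminescence. AC50 from Hill fit.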

[5] = Cell Viability - LYMP2-004 (AID 966); further: potency means the concentration at half of the fitted maximal effect; nearly all actives have a fitted effect of over 65% in size
In short: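 Cells seeded 2500/well, rested 5 hr at 37 C, dosed across a concentration series, incubated 24 hr at 37 C, then CellTiter-Glo added for 30 min at room temperature and luminescence read. Hill fitting gave AC50.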

[6] = Cell Viability - LYMP2-015 (AID 971);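 further: 0% = DMSO only and full effect = 92 µM tetraoctylammonium bromide; nearly all actives have a fitted effect of over 55% in size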
In short: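 Luminescent ATP read-out (CellTiter-Glo) served as the viability measure after lymphoblastoid cells were exposed to compounds for 24 hours at 37 C. Concentration-response data were fitted with the Hill equation to give AC50.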

[7] = Cell Viability - LYMP2-024 (AID 988); conditions: LYMP2-024 lymphoblastoid cell viability; activity change, negative = cytotoxicity: at 92.2 µM (top of the series); further: potency means the concentration at half of the fitted maximal effect; nearly all actives have a fitted effect of over 60% in size
In short: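 Steps: seed 2500 cells/well, 5 hr 37 C; add compound, 24 hr 37 C; add CellTiter-Glo, 30 min room temperature; read luminescence. AC50 derived by Hill modelling of concentration-dependent ATP loss.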

[8] = target: Estrogen receptor (Homo sapiens) (UniProt P03372); assay: qHTS assay for small molecule agonists of estrogen receptor alpha signaling (AID 588514; calls by dose curve;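 further: 0% = vehicle only and 100% = reference agonist; nearly all actives have a fitted effect of over 70% in size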); conditions: ER-alpha-UAS-bla HEK293, beta-lactamase ratio, 18 h; activation: at 76.8 µM (top of the series), percent of full estradiol response, vehicle zero
Sequence of UniProt P03372 (P03372 whole entry, looked up): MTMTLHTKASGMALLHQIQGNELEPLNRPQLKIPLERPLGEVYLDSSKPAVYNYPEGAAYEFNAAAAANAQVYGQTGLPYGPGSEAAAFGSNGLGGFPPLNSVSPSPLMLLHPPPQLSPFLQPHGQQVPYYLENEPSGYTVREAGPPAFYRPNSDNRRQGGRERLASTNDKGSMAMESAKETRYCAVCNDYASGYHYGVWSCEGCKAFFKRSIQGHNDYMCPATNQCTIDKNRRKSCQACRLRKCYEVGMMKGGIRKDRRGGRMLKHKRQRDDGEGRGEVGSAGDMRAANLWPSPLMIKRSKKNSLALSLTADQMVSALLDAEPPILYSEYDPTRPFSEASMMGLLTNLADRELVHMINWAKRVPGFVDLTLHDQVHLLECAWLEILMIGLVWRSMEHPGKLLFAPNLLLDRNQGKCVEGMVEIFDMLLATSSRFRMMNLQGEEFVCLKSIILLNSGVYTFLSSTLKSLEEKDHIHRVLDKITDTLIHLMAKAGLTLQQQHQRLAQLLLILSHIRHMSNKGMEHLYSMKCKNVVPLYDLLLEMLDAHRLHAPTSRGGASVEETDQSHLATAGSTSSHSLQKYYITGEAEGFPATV
In short: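 Cells were plated at 5000/well, incubated 4 hrs at 37 C, dosed with compound titration series, incubated 18 hrs at 37 C, loaded with CCF4 dye for 2 hrs at RT, then fluorescence was read.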

[9] = target: Glucocorticoid receptor (Homo sapiens) (UniProt P04150); assay: qHTS assay for small molecule agonists of glucocorticoid receptor signaling (AID 588532; active means well fitted curve in the direction sought with a large enough effect in the signal ratio, with a control signal flat; inconclusive means small, poorly fitted or top-dose-only effect, or a change in a side signal; inactive means no such curve, though single readings can be large or run the other way; the % refers to the signal ratio; further: potency means the concentration at half of the fitted maximal effect); conditions: HeLa MMTV-bla, beta-lactamase ratio, agonist, 18 h; activation: stronger effect = higher value, percent of dexamethasone control, DMSO zero
In short: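 Titration series, up to 92 uM, applied to GRE-bla HeLa cells for 18 h at 37 C. Detection by CCF4 FRET substrate after 2 h at RT.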

[10] = target: Peroxisome proliferator-activated receptor gamma (Homo sapiens) (UniProt P37231); assay: qHTS assay for small molecule antagonists of peroxisome proliferator-activated receptor gamma signaling (AID 588537; active means well fitted inhibition curve with a large enough effect in the signal ratio, with a control signal flat, not every such curve was filed as active; inconclusive means small, poorly fitted or top-dose-only effect, or effect the other way, or a change in a side signal; the % refers to the signal ratio;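 further: reporter cells co-stimulated with 50 nM rosiglitazone agonist during compound treatment; % of control where 0% means no effect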); conditions: HEK293 PPARg-UAS-bla, beta-lactamase ratio, antagonist mode; activity, negative = inhibition: at 76.8 µM (top of the series)
In short: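 We seeded GeneBLAzer HEK293 reporter cells at 3000 per well, allowed 6-6.5 h attachment at 37 C, then co-treated with test compound titrations and 50 nM rosiglitazone overnight (16 h). Inhibition was quantified from 460/530 nm emission ratios.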

[11] = target: Retinoic acid receptor RXR-alpha (Homo sapiens) (UniProt P19793); assay: qHTS assay for small molecule agonists of retinoid X receptor alpha signaling (AID 588544; calls by dose curve; further: potency means the concentration at half of the fitted maximal effect); conditions: HEK293T RXRa-UAS-bla, beta-lactamase reporter, 18 h; activation: at 76.7 µM (top of the series) unless noted
Sequence of UniProt P19793 (P19793 whole entry, looked up): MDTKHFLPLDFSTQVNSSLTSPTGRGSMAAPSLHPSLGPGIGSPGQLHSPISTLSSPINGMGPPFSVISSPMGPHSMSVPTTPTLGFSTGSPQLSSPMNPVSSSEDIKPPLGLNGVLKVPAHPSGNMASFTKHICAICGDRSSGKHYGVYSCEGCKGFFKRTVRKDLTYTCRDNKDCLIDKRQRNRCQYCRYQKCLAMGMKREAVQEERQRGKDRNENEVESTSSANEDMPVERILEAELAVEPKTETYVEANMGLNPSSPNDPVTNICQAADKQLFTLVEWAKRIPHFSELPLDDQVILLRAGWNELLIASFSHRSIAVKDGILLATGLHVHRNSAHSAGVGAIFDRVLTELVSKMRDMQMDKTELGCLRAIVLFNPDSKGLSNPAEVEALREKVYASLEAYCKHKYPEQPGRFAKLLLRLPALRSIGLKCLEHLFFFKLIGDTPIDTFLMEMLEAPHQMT

[12] = qHTS assay for small molecule agonists of the antioxidant response element (ARE) signaling pathway (AID 651741; active means well fitted activation curve with a large enough effect in the signal ratio; inconclusive means small, poorly fitted or top-dose-only effect, or effect the other way, or a change in a side signal; the % refers to the signal ratio; further: potency means the concentration at half of the fitted maximal effect); conditions: HepG2 ARE-bla reporter, beta-lactamase FRET ratio, 16 h; activation: at 96 µM (top of the series) unless noted
In short: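 Compounds in DMSO are pinned onto HepG2 ARE-bla cells (2,000/well) that were preincubated 5 h; plates stay 16 h at 37 C, then beta-lactamase activity is detected with LiveBLAzer B/G substrate by fluorescence.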

[13] = qHTS assay for small molecule activators of the nuclear factor-kappa B (NF-kB) signaling pathway (AID 651749; active means well fitted activation curve with a large enough effect in the signal ratio; inconclusive means small, poorly fitted or top-dose-only effect, or a change in a side signal; the % refers to the signal ratio; further: % of control where 0% means no effect); conditions: NF-kB-bla ME-180 cells, beta-lactamase FRET ratio, 16 h; activation: stronger effect = higher value
In short: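 Screening used 2,000 ME-180 reporter cells per well exposed to pinned compound (23 nL) or DMSO; after 16 hr at 37C, beta-lactamase expression under NF-kB control was assessed through FRET.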

[14] = qHTS assay for small molecule disruptors of the mitochondrial membrane potential - 1 hr assay (AID 651754; calls by dose curve; further: potency means the concentration at half of the fitted maximal effect; nearly all actives have a fitted effect of over 35% in size); conditions: ratio change, negative = depolarisation: at 92.2 µM (top of the series)
In short: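 HepG2, 2,000 cells/well, overnight attachment; cpd or DMSO 1 hr, 37C/5% CO2; Mito-MPS dye 30 min, 37C; fluorescence monomer (490/535) and aggregate (540/590).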

[15] = qHTS assay for small molecule disruptors of the mitochondrial membrane potential - 5 hr assay (AID 651755; calls by dose curve; further: potency means the concentration at half of the fitted maximal effect; nearly all actives have a fitted effect of over 40% in size); conditions: JC-1-type ratio dye; ratio change, negative = disruption: at 92.2 µM (top of the series)
In short: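 HepG2 cells, attached overnight at 37C, were exposed to compound or DMSO for 5 hr at 37C, 5% CO2. Mito-MPS dye was then added for 30 min, and fluorescence read at 490/535 nm (monomers) and 540/590 nm (aggregates).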

[16] = qHTS assay to identify small molecules that stimulate interleukin-8 (IL-8) secretion (AID 651758; active means well fitted activation curve with a large enough effect in the signal ratio; inconclusive means small, poorly fitted or top-dose-only effect, or effect the other way, or a change in a side signal; the % refers to the signal ratio; further: potency means the concentration at half of the fitted maximal effect); conditions: HTRF ratio (665/615); activation: at 92.2 µM (top of the series)
In short: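 THP-1, 2000 cells/well; cpd 16 h, 37 C; add cryptate + XL665 anti-IL-8 Abs; RT 1-3 h; TR-FRET read.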

[17] = target: Nuclear receptor ROR-gamma (Homo sapiens) (UniProt P51449); assay: qHTS assay for small molecule antagonists of the retinoid-related orphan receptor gamma (ROR-gamma) signaling pathway (AID 651802); further: potency means the concentration at half of the fitted maximal effect; nearly all actives have a fitted effect of over 60% in size
Sequence of UniProt P51449 (P51449 whole entry, looked up): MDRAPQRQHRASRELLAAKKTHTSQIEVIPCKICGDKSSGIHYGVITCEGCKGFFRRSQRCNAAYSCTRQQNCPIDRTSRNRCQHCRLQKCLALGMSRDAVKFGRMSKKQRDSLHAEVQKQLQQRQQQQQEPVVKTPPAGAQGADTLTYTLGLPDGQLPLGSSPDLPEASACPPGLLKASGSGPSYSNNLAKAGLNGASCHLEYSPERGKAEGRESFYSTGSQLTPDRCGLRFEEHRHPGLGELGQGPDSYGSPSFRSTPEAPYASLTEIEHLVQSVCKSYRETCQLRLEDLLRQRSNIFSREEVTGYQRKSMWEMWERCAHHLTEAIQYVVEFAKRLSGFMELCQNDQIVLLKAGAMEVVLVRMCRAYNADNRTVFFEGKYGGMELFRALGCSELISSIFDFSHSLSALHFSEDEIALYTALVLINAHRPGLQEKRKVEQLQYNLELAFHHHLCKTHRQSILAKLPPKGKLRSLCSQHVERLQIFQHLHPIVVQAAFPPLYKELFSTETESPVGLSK
In short: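 CHO, TET-inducible ROR + RORE-LUC reporter, 1536-well qHTS. Compound pinned, doxycycline added, 16hr 37C/5% CO2. ONE-Glo, 30 min RT, luminescence; signal drop scored as antagonism.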

[18] = target: Nuclear receptor subfamily 1 group I member 3 (Homo sapiens) (UniProt Q14994); assay: Primary qHTS for agonist of constitutive androstane receptor (CAR) against the NCATS DSHEA and TCM libraries (AID 1794839); further: potency means the concentration at half of the fitted maximal effect
Sequence of UniProt Q14994 (Q14994 whole entry, looked up): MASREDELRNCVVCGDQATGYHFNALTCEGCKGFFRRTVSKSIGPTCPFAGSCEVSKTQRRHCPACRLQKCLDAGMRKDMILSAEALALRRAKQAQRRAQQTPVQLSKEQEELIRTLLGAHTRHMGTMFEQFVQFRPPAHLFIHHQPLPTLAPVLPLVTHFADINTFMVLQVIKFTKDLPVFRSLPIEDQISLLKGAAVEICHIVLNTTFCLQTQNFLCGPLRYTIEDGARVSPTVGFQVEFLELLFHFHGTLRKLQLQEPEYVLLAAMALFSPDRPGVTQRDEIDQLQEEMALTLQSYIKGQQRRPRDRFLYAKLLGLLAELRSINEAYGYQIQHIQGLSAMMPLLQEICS
In short: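 qHTS, agonist mode: HepG2-CYP2B6-hCAR, 2,500 cells/well, 5 h attach; cpds + PK11195 0.75 µM final; 24 h, 37 °C, 5% CO2. Readouts: CellTiter-Fluor (405/540 nm), then ONE-Glo luminescence.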

[19] = target: Cytochrome P450 2D6 (Homo sapiens) (UniProt P10635); assay: qHTS for inhibitors of CYP2D6 against the NCATS DSHEA and TCM libraries (AID 1919972); further: on the % scale 0 is the no-effect control and ±100 the full control effect
Sequence of UniProt P10635 (P10635 whole entry, looked up): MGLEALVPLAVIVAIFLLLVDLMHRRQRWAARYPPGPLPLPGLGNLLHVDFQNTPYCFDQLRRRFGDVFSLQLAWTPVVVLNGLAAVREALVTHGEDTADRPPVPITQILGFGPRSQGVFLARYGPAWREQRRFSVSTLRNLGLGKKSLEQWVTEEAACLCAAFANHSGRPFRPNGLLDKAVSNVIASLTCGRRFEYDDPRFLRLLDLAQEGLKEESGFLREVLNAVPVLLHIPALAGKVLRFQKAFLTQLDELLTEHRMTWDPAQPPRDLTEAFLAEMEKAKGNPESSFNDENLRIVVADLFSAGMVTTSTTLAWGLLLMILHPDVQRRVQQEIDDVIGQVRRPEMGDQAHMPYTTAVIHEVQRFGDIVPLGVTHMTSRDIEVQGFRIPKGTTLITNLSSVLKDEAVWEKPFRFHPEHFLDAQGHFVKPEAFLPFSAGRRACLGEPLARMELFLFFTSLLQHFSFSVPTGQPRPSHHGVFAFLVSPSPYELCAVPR
In short: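 Luminescent P450-Glo read-out of CYP2D6 turnover of a luciferin substrate after NADPH-driven reaction of 30-45 min at room temperature. Compounds were first preincubated 15 min with enzyme at titrated concentrations; quinidine was the intraplate control.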

[20] = target: Cytochrome P450 2C9 (Homo sapiens) (UniProt P11712); assay: qHTS for inhibitors of CYP2C9 against the NCATS DSHEA and TCM libraries (AID 1919973); further: potency means the concentration at half of the fitted maximal effect
Sequence of UniProt P11712 (P11712 whole entry, looked up, canonical isoform): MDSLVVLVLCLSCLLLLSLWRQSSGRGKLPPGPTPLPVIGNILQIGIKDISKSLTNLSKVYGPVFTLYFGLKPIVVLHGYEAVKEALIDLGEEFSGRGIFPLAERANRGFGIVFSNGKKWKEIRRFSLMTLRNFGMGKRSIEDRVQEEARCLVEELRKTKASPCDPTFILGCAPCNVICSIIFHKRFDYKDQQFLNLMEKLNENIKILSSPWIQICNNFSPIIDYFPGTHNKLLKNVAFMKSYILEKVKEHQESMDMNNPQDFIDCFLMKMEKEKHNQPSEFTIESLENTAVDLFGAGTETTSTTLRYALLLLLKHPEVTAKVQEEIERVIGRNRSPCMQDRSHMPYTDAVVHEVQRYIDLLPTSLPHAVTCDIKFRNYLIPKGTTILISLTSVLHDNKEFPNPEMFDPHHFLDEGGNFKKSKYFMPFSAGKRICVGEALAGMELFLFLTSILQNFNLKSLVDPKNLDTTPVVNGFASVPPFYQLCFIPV
In short: (§1)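 Read-out is luminescence after P450-Glo detection (30 min, RT). Before that: 15 min compound–enzyme preincubation, then 30-45 min reaction with 1x NADPH regeneration solution, substrate concentration isoform-specific.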

[21] = target: Cytochrome P450 2C19 (Homo sapiens) (UniProt P33261); assay: qHTS for inhibitors of CYP2C19 against the NCATS DSHEA and TCM libraries (AID 1919974)
Sequence of UniProt P33261 (P33261 whole entry, looked up): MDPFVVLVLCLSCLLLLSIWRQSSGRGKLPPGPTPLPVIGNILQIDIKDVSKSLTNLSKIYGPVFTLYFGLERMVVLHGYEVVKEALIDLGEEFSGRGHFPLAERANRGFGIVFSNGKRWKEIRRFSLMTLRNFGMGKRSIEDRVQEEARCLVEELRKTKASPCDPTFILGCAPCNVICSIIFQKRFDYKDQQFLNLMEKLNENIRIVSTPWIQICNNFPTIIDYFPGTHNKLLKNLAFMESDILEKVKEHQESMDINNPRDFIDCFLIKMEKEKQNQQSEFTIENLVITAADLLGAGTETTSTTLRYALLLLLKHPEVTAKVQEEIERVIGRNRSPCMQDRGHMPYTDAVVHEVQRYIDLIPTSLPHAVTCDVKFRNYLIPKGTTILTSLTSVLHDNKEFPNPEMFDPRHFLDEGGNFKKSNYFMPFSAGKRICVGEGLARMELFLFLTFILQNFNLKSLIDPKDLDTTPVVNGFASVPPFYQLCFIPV
In short: as §1

[22] = target: 3',5'-cyclic-AMP phosphodiesterase 4B (Homo sapiens) (UniProt Q07343); assay: qHTS Assay for Inhibitors of PDE-IV (AID 607; active means well fitted activation curve with a large enough effect in the main read-out, with a control signal flat, not every such curve was filed as active; inconclusive means small, poorly fitted or top-dose-only effect, or effect the other way, or a change in a side signal; further: potency means the concentration at half of the fitted maximal effect); conditions: HEK293 ACTOne CNG channel cells, membrane potential fluorescence; activation (PDE inhibition): at 22.9 µM (top of the series)
Sequence of UniProt Q07343 (Q07343 whole entry, looked up): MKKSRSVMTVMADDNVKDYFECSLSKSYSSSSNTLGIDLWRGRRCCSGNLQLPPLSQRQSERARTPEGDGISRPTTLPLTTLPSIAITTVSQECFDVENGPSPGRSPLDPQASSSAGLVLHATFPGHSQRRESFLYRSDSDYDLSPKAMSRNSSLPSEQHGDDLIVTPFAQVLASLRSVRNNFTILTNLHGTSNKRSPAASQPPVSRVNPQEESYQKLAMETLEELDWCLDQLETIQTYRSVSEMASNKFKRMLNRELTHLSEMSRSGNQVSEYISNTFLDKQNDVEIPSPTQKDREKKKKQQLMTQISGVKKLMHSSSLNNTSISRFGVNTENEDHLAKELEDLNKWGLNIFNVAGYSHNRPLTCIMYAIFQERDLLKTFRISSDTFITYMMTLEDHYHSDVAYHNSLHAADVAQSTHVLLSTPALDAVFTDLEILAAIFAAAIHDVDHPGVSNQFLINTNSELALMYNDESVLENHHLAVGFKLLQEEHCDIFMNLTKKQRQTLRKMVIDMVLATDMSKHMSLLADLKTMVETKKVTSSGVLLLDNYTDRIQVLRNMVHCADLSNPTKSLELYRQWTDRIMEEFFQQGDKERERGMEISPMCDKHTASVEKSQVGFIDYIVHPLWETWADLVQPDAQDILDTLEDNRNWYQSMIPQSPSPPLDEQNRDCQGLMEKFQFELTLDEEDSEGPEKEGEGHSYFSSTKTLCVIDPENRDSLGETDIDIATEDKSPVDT
In short: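 HEK293 ACTOne cells with CNG channel (1000/well), endogenous PDE4; membrane potential dye, compounds up to 22.9 uM final. Fluorescence Ex 535/Em 590; RO 20-1724 (100 uM final) as reference.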

[23] = target: Cytochrome P450 2D6 (Homo sapiens) (UniProt P10635); assay: qHTS Assay for Inhibitors and Substrates of Cytochrome P450 2D6 (AID 891); conditions: recombinant CYP2D6, luciferin-ME EGE luminescence; activity change, negative = inhibition: at 57.1 µM (top of the series);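 further: luciferin methyl ether substrate demethylated by CYP2D6 with NADPH regeneration; top concentration of the series differs between compounds; on the % scale 0 is the no-effect control and ±100 the full control effect; nearly all actives have a fitted effect of over 60% in size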
In short: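 Human CYP2D6 (5 nM) with 30 uM Luciferin-ME EGE (at Km) in 100 mM KPO4, compound preincubated 10 min, then NADPH regeneration system for 60 min at room temperature. Luciferin read by luminescence; normalized to 1.43 uM quinidine.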

[24] = Viability counterscreen for antagonist of constitutive androstane receptor (CAR) against the NCATS DSHEA and TCM libraries (AID 1794837);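 further: potency means the concentration at half of the fitted maximal effect; compound exposure lasted 24 h before viability reading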
In short: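 Cells: HepG2 line carrying CYP2B6 reporter and hCAR, seeded and attached 5 h. Then pin-transferred test substances plus agonist CITCO at 48 uM final; 24 h incubation; fluorogenic viability reagent, 1 h.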

[25] = target: Cytochrome P450 1A2 (Homo sapiens) (UniProt P05177); assay: qHTS for inhibitors of CYPIA2 against the NCATS DSHEA and TCM libraries (AID 1919976); further: potency means the concentration at half of the fitted maximal effect
Sequence of UniProt P05177 (P05177 whole entry, looked up): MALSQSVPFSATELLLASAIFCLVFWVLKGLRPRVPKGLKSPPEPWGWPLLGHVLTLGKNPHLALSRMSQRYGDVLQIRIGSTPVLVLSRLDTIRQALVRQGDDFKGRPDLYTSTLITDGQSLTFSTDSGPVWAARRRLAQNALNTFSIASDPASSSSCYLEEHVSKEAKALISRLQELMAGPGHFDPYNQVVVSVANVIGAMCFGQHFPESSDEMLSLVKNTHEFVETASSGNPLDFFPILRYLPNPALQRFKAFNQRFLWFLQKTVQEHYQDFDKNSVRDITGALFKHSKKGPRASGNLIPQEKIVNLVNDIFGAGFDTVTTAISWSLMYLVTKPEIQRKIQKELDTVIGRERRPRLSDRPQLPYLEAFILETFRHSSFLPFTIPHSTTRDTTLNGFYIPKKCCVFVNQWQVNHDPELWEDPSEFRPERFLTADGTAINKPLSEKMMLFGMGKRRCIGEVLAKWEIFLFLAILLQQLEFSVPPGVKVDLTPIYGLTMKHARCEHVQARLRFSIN
In short: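 CYP1A2 + luciferin substrate, 100 mM KPO4-type buffer; cmpd 15 min RT; 1x NADPH regen, 30-45 min RT dark; detection reagent 30 min RT; luminescence. Minus-enzyme wells as background; furafylline intraplate control.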

[26] = Dual reporter qHTS for antagonist of Pregnane X Receptor (hPXR) against the NCATS DSHEA and TCM libraries: Fluorescence Readout (AID 1920061); further: potency means the concentration at half of the fitted maximal effect
In short: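 hPXR-Luc HepG2 cells exposed 24 h at 37 C to compounds with 2 uM rifampicin in antagonist mode; luciferase luminescence measured by ONE-Glo, with CellTiter-Fluor viability read beforehand.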
Tags describe the fitted curve by direction and shape or compound fluorescence and quenching.

CC1=C2[C@H](/C=C(\C)C(=O)O)CC[C@@H](C)[C@H]2CC1
inactive: Potency [2] | Potency [3] | Potency [4] | Potency [6] | activation [13] -1.71% | Potency [19]
inconclusive: Potency [1] 69.7 µM [partial curve] | Potency [5] 12.6 µM [cytotoxic, full curve, poor fit] | Potency [7] 50.1 µM [cytotoxic, partial curve] | activation [8] 17.6% | Potency [9] 0.0008 µM [side channel, falling, full curve, poor fit] | activity, negative = inhibition [10] 6% | Potency [11] 10 µM [side channel, rising, full curve, poor fit] | Potency [12] 75 µM [activator, single point] | Potency [14] 2.24 µM [side channel, rising, full curve] | Potency [15] 2.82 µM [side channel, rising, full curve] | Potency [16] 75 µM [activator, single point] | Potency [17] 37.6 µM [inhibitor, partial curve, poor fit] | Potency [18] 7.94 µM [activator, full curve, poor fit] | Potency [20] 12.6 µM [inhibitor, partial curve] | Potency [21] 3.55 µM [inhibitor, full curve]

O=c1cc(-c2ccc(O)c(O)c2)oc2cc(O[C@@H]3O[C@@H](CO)[C@@H](O)[C@@H](O)[C@H]3O)cc(O)c12
inactive: Potency [23]
active: Potency [2] 7.94 µM | Potency [20] 3.98 µM | Potency [21] 3.55 µM | Potency [25] 3.98 µM
inconclusive: Potency [22] 15.1 µM [inhibitor, single point] | Potency [24] 28.2 µM [cytotoxic, partial curve, poor fit] | Potency [26] 31.6 µM [inhibitor, partial curve, poor fit]
